Measured values published in publication PMC5892938.
This is one part of the list. At the low end of the ranking the order means little.

What follows are sequences tested against GST-SBP-SLBP (stem-loop binding protein) (UniProt Q14493) (assay: targeted RNA Bind-n-Seq). Details: RBNS binding buffer: 25 mM Tris pH 7.5, 150 mM KCl, 3 mM MgCl2, 0.1% Tween, 0.5 mg/mL BSA, 1 mM DTT; 27 nM protein, 750 pM RNA pool; temperature not stated; high values mean tight binding.
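Note: DESeq read counts versus GST-SBP nonspecific binding control pulldown.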

Sequence	binding signal (log2 fold change)
GGUCACGUCUCAAUCAACUCUAUCUCAGGAGUUUUCUCCUGCAAUGUCAACAGCUCGCAGUCAAG	-0.0446
GGUCACGUCUCAAUCAACUCAUUUUCCAGGGAAACCCCUGGCUUAGUCAACAGCUCGCAGUCAAG	0.294
GGUCACGUCUCAAUCAACUCUUUUCCCAGGGAAAUCCCUGGUUUACUCAACAGCUCGCAGUCAAG	-0.0531
GGUCACGUCUCAAUCAACUCAUUCCCCAGGGAAAACCCUGGCAAAUUCAACAGCUCGCAGUCAAG	-0.0194
GGUCACGUCUCAAUCAACUCAUGUCCAGGAGUUUUCUCCUGUUAUUUCAACAGCUCGCAGUCAAG	-0.184
GGUCACGUCUCAAUCAACUCAAUCUCCAGGGAAAGCCCUGGUAAAUUCAACAGCUCGCAGUCAAG	-0.0372
GGUCACGUCUCAAUCAACUCAGUCCCCAGGGAAAACCCUGGUAAAUUCAACAGCUCGCAGUCAAG	-0.104
GGUCACGUCUCAAUCAACUCUACUCCAGGAGUUUACUCCUGUAAUCUCAACAGCUCGCAGUCAAG	0.165
GGUCACGUCUCAAUCAACUCUCUCGAGGGGGGGAAAACCCCUUUACCCUCAUUCUCAACAGCUCGCAGUCAAG	0.282
GGUCACGUCUCAAUCAACUCACUAGAGGGGGGGAAAACCCCUUUACCCUCAAAUUCAACAGCUCGCAGUCAAG	0.00988
GGUCACGUCUCAAUCAACUCACUAGAGGGGGGGAAAACCCCUUUGCCCUCGAAUUCAACAGCUCGCAGUCAAG	-0.0769
GGUCACGUCUCAAUCAACUCUUCGCCAGGAGUUUUCUCCUGUAUUUUCAACAGCUCGCAGUCAAG	-0.297
GGUCACGUCUCAAUCAACUCAUCUUCCAGGGAAAACCCUGGCAUUCUCAACAGCUCGCAGUCAAG	0.186
GGUCACGUCUCAAUCAACUCAUCCUCCAGGGAAAGCCCUGGCAUUUUCAACAGCUCGCAGUCAAG	0.259
GGUCACGUCUCAAUCAACUCAAUUCCCAGGGAAAUCCCUGGUUUUUUCAACAGCUCGCAGUCAAG	-0.178
GGUCACGUCUCAAUCAACUCAAUCCCCAGGGAAAUCCCUGGUAAUCUCAACAGCUCGCAGUCAAG	-0.0165
GGUCACGUCUCAAUCAACUCUACUCCAGGAGUUUACUCCUGCAAUUUCAACAGCUCGCAGUCAAG	-0.176
GGUCACGUCUCAAUCAACUCGUCUUCAGGAGUUUACUCCUGCUUUUUCAACAGCUCGCAGUCAAG	0.115
GGUCACGUCUCAAUCAACUCAAUGUCAGGAGUUUGCUCCUGCUUUUUCAACAGCUCGCAGUCAAG	-0.243
GGUCACGUCUCAAUCAACUCUUCGCCAGGAGUUUUCUCCUGUAUACUCAACAGCUCGCAGUCAAG	0.0185
GGUCACGUCUCAAUCAACUCACAUGAGGGGGGGAAAACCCCUUUACCCUCCACAUCAACAGCUCGCAGUCAAG	-0.0622
